The full ranking holds about 33,000 sequences; the median of “E-score (-0.5 to 0.5)” is about -0.054, and the highest 2% start at about 0.35. Some of the results follow.
target: T1, Stb5 (UniProt P38699); assay: PBM E-score (8-mer binding enrichment) (E-score (-0.5 to 0.5)); higher = stronger / more preferred TF binding; most listed sequences are background and not binding sites; settings: protein concentration: 200 nM; construct: GST-full length
T1 sequence: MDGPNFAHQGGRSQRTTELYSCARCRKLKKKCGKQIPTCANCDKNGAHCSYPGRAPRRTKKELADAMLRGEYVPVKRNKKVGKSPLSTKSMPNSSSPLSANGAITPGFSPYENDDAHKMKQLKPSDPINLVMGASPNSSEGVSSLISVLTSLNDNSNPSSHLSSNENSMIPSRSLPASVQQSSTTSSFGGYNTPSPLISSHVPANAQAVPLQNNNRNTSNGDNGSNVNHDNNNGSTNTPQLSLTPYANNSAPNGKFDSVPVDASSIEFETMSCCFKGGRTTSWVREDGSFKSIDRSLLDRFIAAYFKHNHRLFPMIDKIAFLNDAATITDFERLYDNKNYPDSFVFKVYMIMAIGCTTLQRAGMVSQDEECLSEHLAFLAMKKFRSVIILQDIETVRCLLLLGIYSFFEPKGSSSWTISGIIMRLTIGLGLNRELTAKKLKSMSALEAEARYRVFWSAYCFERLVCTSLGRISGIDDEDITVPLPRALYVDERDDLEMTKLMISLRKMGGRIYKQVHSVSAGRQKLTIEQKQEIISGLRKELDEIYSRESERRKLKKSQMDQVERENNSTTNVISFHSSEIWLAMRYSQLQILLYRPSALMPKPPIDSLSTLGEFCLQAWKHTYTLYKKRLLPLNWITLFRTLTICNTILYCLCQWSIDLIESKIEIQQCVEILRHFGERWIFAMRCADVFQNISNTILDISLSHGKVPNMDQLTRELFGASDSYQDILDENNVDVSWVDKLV
How it was run: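 GST-tagged yeast TFs (full-length or DNA-binding domain) were made by PURExpress in vitro transcription/translation and applied at about 100-200 nM to universal all-10-mer Agilent arrays. The arrays were made double-stranded by primer extension, on fresh or once-stripped slides. Bound protein was detected with fluorescent anti-GST, and scans were normalised with masliner. Each ungapped eight-base word, pooled with its reverse complement, received an E-score (modified Wilcoxon-Mann-Whitney statistic) from the Universal PBM Analysis Suite.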

Sequence | PBM E-score
CTAAATTC | -0.0582
CGGTTCAC | 0.00031
AAGCGGAT | 0.297
AAGACGTA | -0.223
GACTAAGA | 0.171
ATGAGGTA | -0.132
AGGTGGAT | -0.138
ACGATGAT | -0.135
CTTTTCTA | -0.203
ATCAGTTA | -0.044
TAGACTGA | -0.0526
CTTCTAAA | -0.0754
CGATCCAG | -0.194
GTTCGGCA | 0.0778
AGCAGAGC | -0.159
AGGACGTC | -0.144
CCTCTAAA | -0.196
AGCATCTC | -0.195
GCCTTGCA | -0.246
ATAAAGGG | 0.0937
ACAATGCC | 0.125
GCACAAAA | -0.0316
GTCCCTAA | -0.0488
CTCGCAAA | -0.304
GACTGTAC | -0.111

Sequence | PBM E-score
ACCCTCTC | -0.22
CACCATCG | -0.0738
CCTGGGAA | -0.168
ACGGTCAA | 0.126
CCGATTCG | 0.157
ATAACCCG | 0.228
CATTACGA | -0.167
AACGATAA | -0.0423
AAAGGATC | -0.0912
CGTCATCC | -0.067
CCTGATCA | -0.0914
ATCTCATC | -0.0881
AGCCTCAT | -0.229
AAGGACTT | 0.064
CATGGTTA | -0.136
CGAACCCA | -0.103
AAACTCTC | -0.0106
CTGTACGA | -0.123
AGTGTGAG | -0.26
CGCCACCG | 0.108
CAAATCCA | -0.178
GTTTAGGA | 0.131
ATTGGCGA | -0.149
ACCAGTAG | -0.217
CTTGGATA | 0.12

Sequence | PBM E-score
AAGGGTCT | -0.149
AATCACCT | 0.058
AGAGCGGA | 0.312
CCGTATGC | 0.185
AACCTAAG | -0.111
GTCCATGA | -0.0776
GCGCGACC | -0.0254
CAGAAGGA | -0.132
AACAGATG | -0.269
TTCTTAAA | -0.168
AGCCCTCG | -0.261
CAGTTAAA | -0.0696
TACCTAGA | -0.0851
AAACAAAA | -0.0307
CCCGCAAA | 0.0474
ACAAAAAA | -0.0653
AACTAGGG | -0.246
CTCGCCTA | -0.117
CACTGTCA | -0.352
CAGGAAAA | -0.0422
CGCGAGAA | 0.124
AAAGACAT | -0.187
TACAAATA | -0.0619
AGCCCGCT | 0.317
ATACGTCG | 0.137

Sequence | PBM E-score
CGACCATA | 0.0311
GGTATTAA | 0.404
AGACTGAG | -0.217
CATTTGTA | -0.114
CGGACCAC | 0.134
AGGGGCAT | -0.248
AAAGTTAC | -0.18
CGAACTAA | -0.266
CGCCTGCA | -0.0516
ACGGACTG | 0.233
AAAAACCA | 0.109
GACGACGA | -0.0925
GGAAATCC | 0.238
CATGTGAG | -0.363
GCGATAAC | 0.105
AATGACCT | -0.0215
ATTGGAAC | -0.00847
CTCTGTTA | -0.0235
GTGTGGAA | -0.0163
CCATGGAA | -0.132
TAGTATCA | -0.0159
GAAAGGAA | 0.0607
AGGTGATG | -0.0285
CTACATCA | -0.153
GCACTGTA | -0.156

Sequence | PBM E-score
CTGACCAG | -0.284
AGCGAGAG | -0.135
ATAGACGG | 0.133
AGTAGAGG | -0.316
TAACTGTA | -0.26
GCCACGAC | 0.134
AGTTACGC | -0.0614
AAACTGAA | -0.004
ACGACCGG | 0.232
ATTATGTG | 0.0509
ACTTATTG | -0.0331
AAGGGTTC | -0.0836
ATGTCGTC | -0.108
ACTTCGCC | -0.13
CCTTTACA | -0.195
CCACGATA | -0.0459
AAGGATAC | -0.088
CGAGTTCA | -0.308
GGGCCTAA | 0.275
ACCTCGTG | -0.221
CTCTAATA | -0.188
AACAGCCA | -0.168
AATACAGT | -0.121
CGAACGTC | -0.113
AAAGGGTT | 0.0114

Sequence | PBM E-score
AAGTTTAA | -0.0638
GACCTGCA | -0.147
ACATACAA | -0.04
CTCACGTA | -0.109
AAACCCTG | -0.0309
TACCCCAA | -0.157
CCCCAGCG | -0.0131
CACTCGGG | -0.0313
CATACAAA | -0.0333
AACGAGAC | -0.0851
AAAATTAG | 0.0305
AGGTGCTG | -0.146
AGATTGCC | 0.0663
CGACAATA | 0.0713
CATCCGTC | 0.103
TCGCATAA | -0.0806
GTGATACA | 0.0193
ATTAGCCC | 0.273
ATGCCTGA | -0.175
GTCCTTCA | 0.0386
CTCCCAAG | -0.215
ACCTAATC | -0.095
AAAGATAT | -0.0472
TCGCAGCA | -0.288
CCAGATTC | -0.00466

Sequence | PBM E-score
CACGCCCG | 0.0876
ATGTGGAG | 0.0382
GAATGCCC | 0.0727
GAAACATC | 0.0249
ATTGCGCG | 0.194
ATCATTTA | -0.133
GACACGGC | 0.175
GGAAGCAA | -0.104
CATAAGGC | 0.126
ACCGGGTG | 0.182
ACCTGACG | -0.204
ACCGTGAT | 0.228
GCACCCCC | -0.187
CTGACCAA | -0.176
AGCAACCT | -0.117
GGGGAACC | -0.106
TGGTCACA | -0.157
AGCAGTAC | -0.0288
CTCTCGTA | -0.267
ACCACGTC | -0.0616
ACCACATC | -0.229
AACTTTGG | -0.251
ATGTTGAG | -0.154
GCAATTCC | -0.0041
CCTCAGAC | 0.0202

Sequence | PBM E-score
GGGGTACA | 0.226
ACAATACC | 0.13
CCAAATCG | 0.0509
AACAGGTG | -0.162
ACTACCGG | 0.279
GCAATGGA | -0.0757
AAACAAGT | -0.0683
CTGGGGCC | -0.0638
AGCCCCGC | 0.421
GATGCCCC | -0.0868
AAGTGGCA | -0.214
ATTGACCA | -0.0516
TCGCAACA | -0.193
GATTAGCA | -0.0315
CTGCCTCA | -0.16
GTTAAACA | 0.101
CGCTAATA | 0.278
CACCATTA | -0.0162
ACTGCTTA | -0.215
ATATGACG | 0.0678
CATCTCGG | 0.106
AGAGCCAG | -0.222
AAATCGTC | 0.0407
ACCACAGA | -0.0655
AACGCTTC | -0.22

Sequence | PBM E-score
AACCACCA | -0.124
ACCGCGGG | 0.317
CTAAAGAA | -0.0255
AGCCGCAT | 0.0777
ATGAAAAG | -0.248
CTCTAGAC | -0.146
ACATACTA | -0.032
ATATCTGC | 0.0369
ACGTCCCT | -0.169
ACGATAAA | -0.0668
GTTGACTA | 0.0237
AACTCTCT | -0.148
GCCTTGGA | -0.177
ACATGTAA | -0.0168
AGAGGCTG | -0.282
AAAGTAGG | -0.0499
CTCAAACA | 0.159
TAGGCCCA | -0.295
ACTGCCCG | 0.04
